Some of the results follow.
These sequences were tested on T1, Caupolican (Caup) homeodomain DNA-binding domain (assay: PBM E-score (8-mer, recovered from the published 9-mer minima) (E-score (dimensionless, -0.5 to 0.5)); Drosophila protein; higher = stronger relative binding preference, active = 0.31 or more).
T1 sequence: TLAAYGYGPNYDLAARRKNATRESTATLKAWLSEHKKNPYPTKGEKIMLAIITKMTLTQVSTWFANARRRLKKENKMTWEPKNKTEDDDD
Procedure, shortened: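 Caup's homeodomain DNA-binding domain (residues 214-303) was produced by in vitro transcription and translation and applied at 100 nM to custom-designed protein binding microarrays. Each value is an enrichment score giving relative binding preference for a short DNA word; higher means stronger. Published 9-mer scores were the minimum of their two constituent 8-mer scores, and the 8-mer values were recovered from those minima. A cutoff of 0.31 marks candidate binding sequences.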

Sequence	PBM E-score
ATCCCCAC	inactive: -0.0707
ATGTCTTC	inactive: 0.196
CCAGGGAC	inactive: -0.134
ACCCAAAC	inactive: -0.00737
CTAGTGAA	inactive: 0.0255
CCGACTAC	inactive: -0.0301
ATCGACGA	inactive: 0.0131
CACCACTG	inactive: -0.105
CTTGCGCC	inactive: -0.178
CAGGTCCA	inactive: 0.0178
ACGAAGCG	inactive: -0.0848
GTGACCGA	inactive: -0.0686
GACCGACC	inactive: -0.0698
GGTAGACC	inactive: -0.103
AGTACGTA	inactive: 0.182
CAAAGTGG	inactive: -0.127
GTTCGTGA	inactive: 0.0372
AGCGCCCT	inactive: -0.187
AAGAGGCC	inactive: -0.216
CAGCATAG	inactive: 0.0339
CAGAGTCG	inactive: -0.0689
AGGTCTTA	inactive: 0.0249
ATGTAAAG	active: 0.317

Sequence	PBM E-score
CGCCATAG	inactive: -0.136
ATAGCACC	inactive: -0.0186
CGGCCATA	inactive: -0.124
ACGCAATG	inactive: 0.0404
CTCGGCGC	inactive: -0.213
CACGGTGA	inactive: 0.0751
GAGACCTC	inactive: -0.172
AACCGTGA	inactive: 0.0248
ACACACGC	inactive: 0.205
CGCCAAGC	inactive: -0.21
ACCTCGCA	≥ -0.0388
CGGCTCTA	≥ -0.0637
ACCAATAT	≥ 0.149
AAGGAGTG	inactive: -0.0683
ATGTACCG	inactive: 0.287
CAGACTAA	inactive: 0.0303
AAGAGACG	inactive: -0.0512
AGTACGCA	inactive: 0.0016
ACTTGTTG	inactive: 0.29
CTTACCCC	inactive: -0.277
CTCAGAAA	inactive: -0.0399
ATTATGGG	inactive: 0.0116
CATGACGC	inactive: 0.032

Sequence	PBM E-score
ACTTCTGC	inactive: -0.00527
CCCCCTCG	inactive: -0.329
GTCTGCTA	≥ 0.0631
ATAGAATA	≥ 0.185
AAGGAGGC	inactive: -0.198
CAAGACCA	inactive: 0.042
CAGGAGAG	inactive: -0.0531
AGGGTGTC	inactive: 0.041
AGAGCAAA	inactive: 0.0279
CCAAGAGG	inactive: -0.13
AGAGATAC	inactive: 0.0674
ATCTATCA	inactive: 0.118
CTGCAACA	inactive: 0.104
CCTGTGTA	inactive: 0.283
AAGATATA	inactive: 0.172
CCCTCGAC	inactive: -0.156
CGCGGGGA	inactive: -0.136
ACCCGTAA	inactive: 0.045
AATACTAT	inactive: 0.157
GCAAAACA	inactive: 0.138
GTCATTCA	inactive: 0.0789
GTACGTAC	inactive: 0.164
GACTTGGC	inactive: -0.165

Sequence	PBM E-score
GAGCCTTA	inactive: -0.104
ATGACAAG	active: ≥ 0.378
CGTCGGCC	inactive: -0.224
CGGACCCG	inactive: -0.218
ACCTCATC	inactive: -0.077
CGGGCTTA	inactive: -0.126
AACTGTAA	inactive: 0.197
CCCGGAAC	inactive: -0.104
GAGGCCGC	inactive: -0.208
CTACCATC	inactive: -0.0129
ATCTCATA	inactive: 0.0234
AGAGCTTA	inactive: -0.126
CGCATTAC	inactive: 0.118
GCTGCACC	inactive: -0.174
CGTTCGGC	inactive: -0.137
ATCGACAT	inactive: 0.294
CGGTTTTC	inactive: -0.0481
ATGTAGGA	inactive: 0.187
AGTATATC	inactive: 0.112
AAAAGAGC	inactive: -0.055
CGTAACTA	inactive: 0.111
ATCATACC	inactive: 0.108
GAAGGCGA	inactive: -0.199

Sequence	PBM E-score
GTTATGCA	inactive: 0.033
ATTATCTA	≥ 0.163
AAAAAACA	inactive: 0.21
ACCCGGAC	inactive: -0.125
GACATGTC	active: 0.437
GGATCCGA	inactive: -0.119
GGCTACCC	inactive: -0.239
CCTGAGAA	inactive: 0.0467
TCAGTCGA	inactive: 0.00191
AAGAAACG	inactive: 0.022
CCCGTGTA	inactive: 0.25
AGTTGTTG	inactive: 0.183
CCTGCCTA	inactive: -0.0608
CAGAGCGG	inactive: -0.155
ATATACTA	inactive: 0.183
CGAGCCAA	inactive: -0.0569
CCACGGAC	inactive: -0.139
GTCGCCTA	inactive: -0.16
AGCGAGCA	inactive: -0.0559
AATACGCA	inactive: 0.0736
ACGCGGGC	inactive: -0.174

Reference: the supplement of paper PMC3724861
